According to paper PMC9911399, “Two distinct binding modes provide the RNA-binding protein RbFox with extraordinary sequence specificity”:
Residue numbers refer to the chain shown, from its start. The list shows a part of the results.

T1: RBFOX1 RRM (Homo sapiens, UniProt Q9NWB1 109-208)
T1 sequence: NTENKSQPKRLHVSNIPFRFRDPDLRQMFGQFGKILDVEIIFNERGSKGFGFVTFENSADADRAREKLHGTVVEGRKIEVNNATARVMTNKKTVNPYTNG

B1: GCUCUUU (DNA:RNA)
RNA: GGGAGACCGGAAUUCAGAUUGUCCGCUCUUUUUAAAUCCCGUCGUAGCCACCA
DNA 1: CAATCTGAATTCCGGTCTCCC
DNA 2: TGGTGGCTACGACGGGATT
B2: AAAUGCC (DNA:RNA)
RNA: GGGAGACCGGAAUUCAGAUUGUCCAAAUGCCUUAAAUCCCGUCGUAGCCACCA
DNA 1: CAATCTGAATTCCGGTCTCCC
DNA 2: TGGTGGCTACGACGGGATT
B3: AUGACAG (DNA:RNA)
RNA: B2 RNA with A26U, A27G, U28A, G29C, C30A, C31G
DNA 1: CAATCTGAATTCCGGTCTCCC
DNA 2: TGGTGGCTACGACGGGATT
B4: UCGCAGG (DNA:RNA)
RNA: B1 RNA with G25U, U27G, U29A, U30G, U31G
DNA 1: CAATCTGAATTCCGGTCTCCC
DNA 2: TGGTGGCTACGACGGGATT
B5: GGAUUGC (DNA:RNA)
RNA: B2 RNA with A25G, A26G, G29U, C30G
DNA 1: CAATCTGAATTCCGGTCTCCC
DNA 2: TGGTGGCTACGACGGGATT
B6: UAGCAGA (DNA:RNA)
RNA: B2 RNA with A25U, A27G, U28C, G29A, C30G, C31A
DNA 1: CAATCTGAATTCCGGTCTCCC
DNA 2: TGGTGGCTACGACGGGATT
B7: GAAACCU (DNA:RNA)
RNA: B2 RNA with A25G, U28A, G29C, C31U
DNA 1: CAATCTGAATTCCGGTCTCCC
DNA 2: TGGTGGCTACGACGGGATT
B8: GGAACUG (DNA:RNA)
RNA: B1 RNA with C26G, U27A, C28A, U29C, U31G
DNA 1: CAATCTGAATTCCGGTCTCCC
DNA 2: TGGTGGCTACGACGGGATT
B9: AUAGGGA (DNA:RNA)
RNA: B2 RNA with A26U, U28G, C30G, C31A
DNA 1: CAATCTGAATTCCGGTCTCCC
DNA 2: TGGTGGCTACGACGGGATT
B10: CGACCGC (DNA:RNA)
RNA: B2 RNA with A25C, A26G, U28C, G29C, C30G
DNA 1: CAATCTGAATTCCGGTCTCCC
DNA 2: TGGTGGCTACGACGGGATT
B11: UGCAAAG (DNA:RNA)
RNA: GGGAGACCGGAAUUCAGAUUGUCCUGCAAAGUUAAAUCCCGUCGUAGCCACCA
DNA 1: CAATCTGAATTCCGGTCTCCC
DNA 2: TGGTGGCTACGACGGGATT
B12: AGUAAAA (DNA:RNA)
RNA: B11 RNA with U25A, C27U, G31A
DNA 1: CAATCTGAATTCCGGTCTCCC
DNA 2: TGGTGGCTACGACGGGATT
B13: UGAUGAU (DNA:RNA)
RNA: B2 RNA with A25U, A26G, C30A, C31U
DNA 1: CAATCTGAATTCCGGTCTCCC
DNA 2: TGGTGGCTACGACGGGATT
B14: CAAUUUU (DNA:RNA)
RNA: B2 RNA with A25C, G29U, C30U, C31U
DNA 1: CAATCTGAATTCCGGTCTCCC
DNA 2: TGGTGGCTACGACGGGATT
B15: GCCUACA (DNA:RNA)
RNA: B2 RNA with A25G, A26C, A27C, G29A, C31A
DNA 1: CAATCTGAATTCCGGTCTCCC
DNA 2: TGGTGGCTACGACGGGATT
B16: UGCGGGC (DNA:RNA)
RNA: B11 RNA with A28G, A29G, A30G, G31C
DNA 1: CAATCTGAATTCCGGTCTCCC
DNA 2: TGGTGGCTACGACGGGATT
B17: UGUCCUA (DNA:RNA)
RNA: B1 RNA with G25U, C26G, U29C, U31A
DNA 1: CAATCTGAATTCCGGTCTCCC
DNA 2: TGGTGGCTACGACGGGATT
B18: AGUCGUC (DNA:RNA)
RNA: B2 RNA with A26G, A27U, U28C, C30U
DNA 1: CAATCTGAATTCCGGTCTCCC
DNA 2: TGGTGGCTACGACGGGATT
B19: UAUAGCU (DNA:RNA)
RNA: B2 RNA with A25U, A27U, U28A, C31U
DNA 1: CAATCTGAATTCCGGTCTCCC
DNA 2: TGGTGGCTACGACGGGATT
B20: AAUGAAG (DNA:RNA)
RNA: B11 RNA with U25A, G26A, C27U, A28G
DNA 1: CAATCTGAATTCCGGTCTCCC
DNA 2: TGGTGGCTACGACGGGATT
B21: CUGUGCC (DNA:RNA)
RNA: B2 RNA with A25C, A26U, A27G
DNA 1: CAATCTGAATTCCGGTCTCCC
DNA 2: TGGTGGCTACGACGGGATT
B22: AGGAAAC (DNA:RNA)
RNA: B11 RNA with U25A, C27G, G31C
DNA 1: CAATCTGAATTCCGGTCTCCC
DNA 2: TGGTGGCTACGACGGGATT
B23: UGCGGAA (DNA:RNA)
RNA: B11 RNA with A28G, A29G, G31A
DNA 1: CAATCTGAATTCCGGTCTCCC
DNA 2: TGGTGGCTACGACGGGATT
B24: CCAUAAU (DNA:RNA)
RNA: B2 RNA with A25C, A26C, G29A, C30A, C31U
DNA 1: CAATCTGAATTCCGGTCTCCC
DNA 2: TGGTGGCTACGACGGGATT
B25: CCGACAA (DNA:RNA)
RNA: B11 RNA with U25C, G26C, C27G, A29C, G31A
DNA 1: CAATCTGAATTCCGGTCTCCC
DNA 2: TGGTGGCTACGACGGGATT
B26: AACCACG (DNA:RNA)
RNA: B2 RNA with A27C, U28C, G29A, C31G
DNA 1: CAATCTGAATTCCGGTCTCCC
DNA 2: TGGTGGCTACGACGGGATT
B27: CUUAUCC (DNA:RNA)
RNA: B2 RNA with A25C, A26U, A27U, U28A, G29U
DNA 1: CAATCTGAATTCCGGTCTCCC
DNA 2: TGGTGGCTACGACGGGATT
B28: AGCUCCC (DNA:RNA)
RNA: B2 RNA with A26G, A27C, G29C
DNA 1: CAATCTGAATTCCGGTCTCCC
DNA 2: TGGTGGCTACGACGGGATT
B29: CGGUCGC (DNA:RNA)
RNA: B2 RNA with A25C, A26G, A27G, G29C, C30G
DNA 1: CAATCTGAATTCCGGTCTCCC
DNA 2: TGGTGGCTACGACGGGATT
B30: UAGAACG (DNA:RNA)
RNA: B11 RNA with G26A, C27G, A30C
DNA 1: CAATCTGAATTCCGGTCTCCC
DNA 2: TGGTGGCTACGACGGGATT
B31: CAUCAUC (DNA:RNA)
RNA: B1 RNA with G25C, C26A, U29A, U31C
DNA 1: CAATCTGAATTCCGGTCTCCC
DNA 2: TGGTGGCTACGACGGGATT

Biological target: T1, RBFOX1 RRM
Assay: EMSA; HiTS-Eq, 1 nM pool, 10 min; buffer printed only for the single-RNA assays: 10 mM Tris pH 7.5, 150 mM NaCl, 3.4 mM EDTA, 0.001% NP-40, 30 C
Details: tags: His6 N-terminal (pET28a); label: 5' 32P
How it was run: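 Purified RbFox RRM (wild type or mutant) was equilibrated for 10 min in 50 µL with 1 nM of a 5′-radiolabelled pool of RNA with 7 randomized nucleotides, its flanks annealed to DNA oligonucleotides, across increasing protein concentrations. Free RNA was separated by 8% native PAGE, excised, reverse-transcribed, PCR-barcoded and sequenced on an Illumina HiSeq 2500. Relative association constants came from read-count changes of each variant against the control reaction, normalised to the cognate motif.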

Binder	binding signal
B1	0.0167 KA relative to UGCAUGU
B2	0.00473 KA relative to UGCAUGU
B3	0.00726 KA relative to UGCAUGU
B4	0.0168 KA relative to UGCAUGU
B5	0.0376 KA relative to UGCAUGU
B6	0.0111 KA relative to UGCAUGU
B7	0.00477 KA relative to UGCAUGU
B8	0.0214 KA relative to UGCAUGU
B9	0.00357 KA relative to UGCAUGU
B10	0.01 KA relative to UGCAUGU
B11	0.0165 KA relative to UGCAUGU
B12	0.00349 KA relative to UGCAUGU
B13	0.0214 KA relative to UGCAUGU
B14	0.00147 KA relative to UGCAUGU
B15	0.00989 KA relative to UGCAUGU
B16	0.00732 KA relative to UGCAUGU

Binder	binding signal
B17	0.00708 KA relative to UGCAUGU
B18	0.0118 KA relative to UGCAUGU
B19	0.00579 KA relative to UGCAUGU
B20	0.00997 KA relative to UGCAUGU
B21	0.0119 KA relative to UGCAUGU
B22	0.0142 KA relative to UGCAUGU
B23	0.0165 KA relative to UGCAUGU
B24	0.00169 KA relative to UGCAUGU
B25	0.00204 KA relative to UGCAUGU
B26	0.00105 KA relative to UGCAUGU
B27	0.0009 KA relative to UGCAUGU
B28	0.00251 KA relative to UGCAUGU
B29	0.00974 KA relative to UGCAUGU
B30	0.017 KA relative to UGCAUGU
B31	0.000831 KA relative to UGCAUGU
